B1: OR4K15 (parent)
chain: GUUAACGGUCAUAGGCCAUGGAAACUAGGAGCACCAUUUCGCUGCCAGUGAAGAAAUGAACAAAGAAAAUCUGGGCCAGGCAGGCAUCAAAAGAAAUAGUCUUGCGCUCAACCAGAAAGUCUGUAAUCAUUUUAAGGGUA

Read counts are not given, so values of variants with three or more changes are uncertain.

Variants of B1 are the subject of this data set. The data set can be described thus: self-cleavage, relative activity (ratio to wild type); higher = more cleavage; in vitro, sequencing; the parent is a self-cleaving ribozyme.
For GUUAACGGUCAAAGGCCAUGGAAACUAGGAGCACCAUUUCGCUGCCAGUGAAGAAAUGAACAAGGAAAAUCUGGGCCAGGCAGGCAUCAAAAGAAAUAGUCUUGCGCUCAACCAGAAAGUCUGUAAUCAUUUUAGGGGUA, the self-cleavage came out at 1.69.

GUUAACGGUCAAAGGCCAUGGAAACUAGGAGCACCAUUUCGCUGCCAGUGAAGAAAUGAACAAAGAAUAUCUGGGCCAGGCAGGCAUCAAAUGAAAUAGUCUUGCGCUCAACCAGAAAGUCUGUAAUCAUUCUAAGGGUA: the self-cleavage is 1.3.

Regarding GUUAACGGUCACGGGCCAUGGAAACUAGGAGCACCAUCUCGCUGCCAGUGAAGAAAUGAUCAAAGAAAAUCUGGGCCAGGCAGGCAUCAAAAGAAAUAGUCUUGCGCUCAACCAGAAAGUCUGUAAUCAUUUUAAGGGUA, the self-cleavage came to 1.33.

GUUAACGGUCACAGGCCGUGGAAACUAGGAGCACCAUCUCGCGGCCAGUGAAGAAAUGAACAAAGAAAAUUUGGGCCAGGCAGGCAUCAAAAGAAAUAGUCUUGCGCUCAACCAGAAAGUCUGUAAUCAUUGUAAGGGUA: the self-cleavage was determined as 0.51.

In the case of GUUAACGGUCAAAGGCCAUGGAAACUAGGAGCACCAUUUCGCUGCCAGUGAAGUAAUGAACAAAGAAAAUCUGGGCCAGGCAGGCAUCAAAAGAAAUAGCCUUGCGCUCAACCAGAAAGUCUGUAAUCAUUUUAAGGGUA, the self-cleavage came out at 1.66.

As for GUUAACGGUCAAAGGCCAUGGAAACUAGGAUCACCAUUUCGCUGCCGGUGAGGAAAAGAACAAAGAAAAUCUGUGCCAGGCAGGCAUCAAAAGAAAUAGGCUUGCGCUCAACCAGAAAGUCUGUAAUCAUUUUAAGGGUA, the self-cleavage came to 0.39.

On to GUUAACGGUCAAAGGCCAUGGAAACUAGGAGCACCAUUUCGCUGCCAGUGAAGAGAUGAACAAAGAAAAUCUGGGCCAGGCAGGCAUCAAAAGAAGUAGUCUUGCGCUCAACCAGAAAGUCUGUAAUCAUUUUAAGGGUA, for which the self-cleavage is 2.12.

With GUUAACGGUCAAAGGCCAUGGAAACUAGGAGCACCACUUCGCUGCCAGUGAAGAAAUGAACAAAGAAAAUCUGGGCCAGGCAGGCAUCAAAAGAAAUAGUCUUGCGCUCAACCAGAAAGUCUGUAAUCAUCUUAAGGGUA, the self-cleavage came to 1.18.

With GUUAACGGUCAAAGGCCAUGGAAACUAGGAGCACCAUUCCGCCGCCAGUGAAGUAAUGAACAAAGAAAAUCUGGGCCAGGCAGGCAUCAAAGGAAAUAGUCUUGCGCUCAACCAGAAAGUCUGUAAUCAUUUUAAGGGUA, the self-cleavage is 1.86.

For the variant GUUAACGGUCAAAGGCCAUGGAAACUAGGAGCACCAUUUCGCUGCCAGUGAAGAAAUGAACAAAGAAAAUCUGGGCCAGGCAGGCAUCAAAAGAAAAAGUCUUGCGCUCAACCAGAAAGUCUGUAAUCAUUUUAGGGGUA, the self-cleavage turned out to be 1.63.

For GUUAACGGUCAAAGGCCAUGGAAGCUAGGAGCACCAUUUCGCUGCCAGUGAGGAAAUGAACAAAGAAAAUCUGGGCCAGGCAGGCAUCAAAAGAAAUAGUCUUGCGCUCAACCAGAAAGUCUGUAAUCAUUUUAAGGGUA, the self-cleavage came out at 1.16.

Consider GUUAACGGUCACGGGCCAUGGAAACUAGGAGCGCCAUUUCGCUGCCAGUGAAGAAAUGAACAAAGGAAAUCUGGGCCAGGCAGGCAUCAAAAGAAAUAGUCUCGCGCUCAACCAGGAAGUCUGUAAUCAUUUUAGGGGUA, for which the self-cleavage came to 0.09.

On to GUUAACGGUCAAAGGCCAUGGAAACUAGGAGCACCCUUUCGCUGCUAGUGAAGAAAUGAACAAAGAAAAUCUGGGCCAGGCGGGCAUCAAAAGAAAUAGUCCUGCGCUCAACCAGAAAGUCUGUAAUCAUUUUAAGGGUA, for which the self-cleavage came to 1.21.

For GUUAACGGUCAAAGGCCAUGGAAACUAGGAGCACCAUUUCGCUGCCAGUGAAGAAAUGAACAAAGAAAAUCUGGGCCAGGCAGGCUUCAAAAGAAAUAGUCUUGCGCACAACCAGAAAGUCUGUAAUCAUUUUAAGGGUA, the self-cleavage was determined as 0.01.

On to GUUAACGGUCAAAGGCCAUGGAAACUAGGAGCACCAUUUCGCUUCCAGUGAAGAAAUGAACAAAGAAAAUCUGGGCCAGGCAGGCAUCAAAAGAAAUAGUCUUGCGCUCAACCAGAAUGUCUGUAAUCAUUUUAAGGGUA, for which the self-cleavage came to 1.21.

In the case of GUUAACGGUCAAAGGCCAUGGAAACUAGGAGCACCAUUUCGCUGCCAGUGAAGAAAUGGACAAAGAAAACCUGGGCCAGGCAGGCAUCAGAAGAAAUAGUCUUGCGCUCAACCAGAAAGUCUGUAAUCAUUUUAAGGGUA, the self-cleavage is 0.17.

As for GUUAACGGUCAAAGGCCAUGGAAACUAGGAGCACCAUUUCGCUGCCAGUGAAGAAAUGAACAAAGAAAAUCUGGGCCAGGCAGGCAUCAAGAGAAAUAGUCUUGCGCUCAACCAGAAAGUCUGUAAUCAUUUAAAGGGUA, the self-cleavage worked out at 1.39.

For the variant GUUAACGGUCACAGGCCAUGGGAACUAGGAGCACCAUUUCGCUGCCAGUGAAGAAAUGAACAAAGAAAAUCUGGGCCAGGCAGGCAUCAGAAGAAAUAGUCUUGCGCUCAACCAGAAAGUCUGUAAUCAUUUUAAGGGUA, the self-cleavage was found to be 1.07.

Turning to GUUAACGGUCAAAGGCCAUGGAAACUAGGAGCACCAUUUCGCUGCCAGAGAAGAAAUGUACAAAGAAAAUCUGAGCCAGGCAGGCAUCAAAAGAAAUAGCCUUGCGCUCAACCAGAAAGUCUGUAAUCAUUUUAAGGGUA, the self-cleavage stood at 0.44.

Consider GUUAACGGUCAAAGGCCAUGGAAACUAGGAGCACCAUUUCGCUGCCAGUGAAGAAAUGAACAAAGAAAAUCUGGGCCAGGCAGGCAUCAAAAGAAAUAGUCUUGCGCUCAACCAGAUAGGCUGUAAUCAUUUUAAGGGUA, for which the self-cleavage was determined as 1.18.

As for GUUAACGGUCACAGGCCAUGGUAACUAGGAGCACCAUUUCGCUGCCAGUGAAGAAAUGGACAAAGAAAAUCUGGGCCAGGCAGGCAUCAAAAGAAAUAGUCUUGCGCUCAACCAGAAAGUCUGUAAUCAUUUUAAGGGUA, the self-cleavage amounted to 0.11.

Regarding GUUAACGGUCAAAAGCCAUGGAAACUAGGGGCACCAUUUCGCUGCCAGUGAAGAAAUGAACAAAGAAAAUCUGGGCCAGGCGGGCAUCAAAAGAAAUAGUCUUGCGCUCAACCAGAAAGUCUGUAAUCAUUCUAAGGGUA, the self-cleavage was 0.19.

As to GUUAACGGUCAAAGGCCAUGGAAACUAGGAGCACCAUUUCGCUGCCAGUGAAGGAAUGAACAAAGAAAAUCUGGGCCAGGCAGGCAUCAAAAGAAAUAGUCUUGCGCUCAACCAGAAAGUCUGUAAUCAUCUUAAGGGUA, the self-cleavage turned out to be 1.07.

GUUAACGGUCAAAGGCCAUGGAAACUAGGAGCACCAUUCCGCUGCCAGUGAAGAAAUGACCAAAGAAAAUCUGGGCCAGGCAGGCAUCAAAAGAAAUAGUCUUGCGCUCAACCAGAAAGUCUGUAACCAUUUUAAGGGUA: the self-cleavage was 0.29.

For GUUAACGGUCACAGGCCAUGGGGACUAGGAGCACCAUUUCGCUGCCAGUGAAGAAAUGAACAAAGAAAAUCUGGGCCAGGCAGGCUUCAAAAGAAAUAGUCUUGCGCUCAACCAGAAAGUCUGUAAUCAUUUUAAGGGUA, the self-cleavage was 1.15.

For the variant GUUAACGGUCACAGGCCAUGGAGGCUAGGAGCACCAUUUCGCUGCCAGUGAAGAAAUGAACAAAGAAAAUCCGGGCCAGGCAGGCAUCAAAAGAAAUAGUCUUGCGCUCAACCAGAAAGUCUGUAAUCAUUUUAAGGGUG, the self-cleavage came to 0.37.

For the variant GUUAACGGUCACGGGCCACGGAAACUAGGAGCACCAUUUCGCUGCCAGUGAAGAAAUGAACAAAGAAAAUCUGGGCCAGGCAGGCAUCAAAAGAAAUAGUCUUGCGCUCAACCAGAAAGUCUGUAAUCAUUUUAAGGGUA, the self-cleavage is 1.07.

As for GUUAACGGUCAAAGGCCAUGGAAACUAGGAGCACCAUUUCGCUGCCAGUGAAGAAAAGAACAAAGAAAAUCUGGGCCAGGCUGGCAUCAAAAGAAAUAGUCUUGCGCUCAACCAGAAAGUCUGUAAUCAUUUUAAGGGUA, the self-cleavage turned out to be 0.32.

GUUAACGGUCACGGGCCAUGGAAACUAGGAGCACCAUUUCGCUGCCAGUGAAGAAAUGAACAAAGAAAAUCUGGGCCAGGCAGGCAUCAAAAGAAAUAGUCUUGCGCUCAACCAGAAAGUCUGUAAUCACUUUAAGGGUA: the self-cleavage came out at 1.22.

Regarding GUUAACGGUCAAAGGCCAUGGAAACUAGGAGCACCAUUUCGCUGCCAGUGAAGAAAUGAACAAAGAAAAUCUGGGCCAGGCAGGCAUCAAAGGAAAUAGUCUUGCGCUCAACCAGAAAGUCUGUAAUUAUUUUAAGGGUA, the self-cleavage stood at 0.85.

Take GUUAACGGUCAAAGGCCAUGGAAACUAGGAGCACCAUUUCGCUGCCAGUGAAGGAAUGAACAAAGAAAAUCUGGGCCGGGCAGGCAUCAAAAGAAAUAGUCUUGCGCUCAACCAGAAAGUCUGUAAUCAUUUUAAGGGUA: the self-cleavage was 0.36.

For the variant GUUAACGGUCACAGGCCAUGGGAGCUAGAAGCACCAUUUCGCUGCCAGUGGAGAAAUGGACAAAGAAAAUCUGGGCCAGGCAGGCAUCAAAAGAAAUAGUCUUGCGCUCUACCAGAAAGUCUGUAAUCAUUUUAAGGGUA, the self-cleavage is 1.09.

As for GUUAACGGUCAAAGGCCACGGAAACUAGGAGCACCAUUUCGCUGCCAGUGAAGGUAUGAACAAAGAAAAUCUGGGCCAGGCAGGCACCAAAAGAAAUAGUCUUGCGCUCAACCAGAAAGUCUGUAAUCAUUUUAAGGGUA, the self-cleavage stood at 0.37.

In the case of GUUAACGGUCACAGGCCGUGGAAACUAGGAGCACCAUUUCGCUGCCAGUGAAGAAAUGAACAAAGAAAAUCUGGGCCAGGCAGGCAUCAAGAGAAAUAGUCUUGCGCUCAACCAGAAAGUCUGUAAUCAUUUUAAGGGUA, the self-cleavage is 1.2.

Regarding GUUAACGGUCAAAGGCCAUGGAAACUAGGGGCACCAUUUCGCUGCCAGUGAAGAAAUGAACAAAGAAAAUCUGGGCCAGGCAGGCAUCAAAAGAGAUAGUCUUGCGCUCAACCAGAAAGUCUGUAAACAUUUUAAGGGUA, the self-cleavage is 2.61.

As for GUUAACGGUCAAAGGCCAUGGAAACUAGGAGCACCAUUUCGCUGCCGGUGAAGAAAUGAACAAAGAAAAUCUGGGCCAGGCAGGCAUCGAAAGAAAUAGUCUUGCGCUCAACCAGAAAGUCUGUAAUCAUUUUAAGGGUA, the self-cleavage turned out to be 0.97.

With GUUAACGGUCACAGGCCAUGGAGACUAGGAGCACCAUUUCGCUGCCAGUGAAGAAAUGGACAAAGAAAAUCUGGGCCAGGCAGGCAUCAAAAGAAAUAGUCUUGCGCUCAACCAGAAAGUCUGUAAUCAUUUUAAGGGUA, the self-cleavage amounted to 0.56.

Regarding GUUAACGGUCAAAGGCCAUGGAAACUAGGAGCACCAUUUCGCUGCCAGUGAAGAAAUGAACAAAGAAGAUCUGGGCCAGGCAGGCAUUAAAAGAAAUAGCCUUGCGCUCAACCGGAAAGUCUGUAAUCAUUUUAAGGGUA, the self-cleavage came out at 0.79.

As to GUUAACGGUCACAGGCCAUGGAGACUAGGAGCUCCAUUUCGCUGCCAGUGAAGAAAUGAACAAAGAAAAUCUGGGCCAGGCAGGCAUCAAAAGAAAUAGUCUUGCGCUCAACCAGAGAGUCUGUAAUCAUUUUAAGGGUA, the self-cleavage stood at 1.63.

For the variant GUUAACGGUCAAAGGCCACGGAAACUAGGAGCACCAUUUCGCUGCCAGUGAAGAAAUGAACAAAGAAAAUCUGGGCCAGGCAGGCAUCAAAAGAAGUAGUCUUGCGCUCAACCAGAAAGUCUGUAAUCAUUUUAAGGGUA, the self-cleavage worked out at 1.45.

GUUAACGGUCAAAGGCCAUGGAGACUAGGAGCACCACUUCGCUGCCUGUGAAGAAAUGAACAAAGAAAAUCUGGGCCAGGCAGGCAUCAAAAGAAAUAGUCUUGCGCUCAACCAGAAAGUCUGUAAUCAUUCUAAGGGUA: the self-cleavage was 0.29.

Values taken from the RNAGym collection of RNA variant scans (doi:10.7554/elife.90254).
